# Data reported in the supplement of paper PMC8728848.
# Some of the results follow.
# B1: CFEM-PPm (Pichia pastoris), F2QPV1 (protein)
# chain: AVATPPACLLACAAEVVKESSDCDALNNIQCICENEGSAIHACLESTCPDGLSSTALQSFEDVCE
# Columns and labels:
# Experiment in all cases: glycan array binding signal (z-score within array); higher = stronger binding
# Conditions in all cases: glycan notation: IUPAC condensed, linker removed
# [1] = molecular target: Fuc(a1-2)Gal(b1-4)GlcNAc(b1-3)Gal(b1-4)GlcNAc(b1-2)Man(a1-3)[Fuc(a1-2)Gal(b1-4)GlcNAc(b1-3)Gal(b1-4)GlcNAc(b1-2)Man(a1-6)]Man(b1-4)GlcNAc(b1-4)GlcNAc
# In short: (§1)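 Negative Z-scores can be read as non-binding. The Z-score is calculated within each array and then averaged across arrays of one protein sequence at different concentrations or buffers and across linkers. Arrays, 3228 in all, were curated from the Consortium for Functional Glycomics database and kept only where the protein sequence was available.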
# [2] = molecular target: Fuc(a1-2)Gal(b1-4)GlcNAc(b1-3)Gal(b1-4)GlcNAc(b1-3)Gal(b1-4)GlcNAc
# In short: as §1
# [3] = molecular target: Fuc(a1-2)Gal(b1-4)GlcNAc(b1-3)GalNAc
# In short: as §1
# [4] = molecular target: Fuc(a1-2)Gal(b1-4)GlcNAc(b1-3)[Fuc(a1-2)Gal(b1-4)GlcNAc(b1-6)]GalNAc
# In short: as §1
# [5] = molecular target: Fuc(a1-2)Gal(b1-4)GlcNAc(b1-3)[Fuc(a1-3)[Gal(b1-4)]GlcNAc(b1-6)]Gal(b1-4)Glc
# In short: as §1
# [6] = molecular target: Fuc(a1-2)Gal(b1-4)GlcNAc(b1-6)GalNAc
# In short: as §1
# [7] = molecular target: Fuc(a1-2)Gal(b1-4)GlcNAc6S
# In short: as §1
# [8] = molecular target: Fuc(a1-2)Gal(b1-4)[Fuc(a1-3)]GlcNAc
# In short: as §1
# [9] = molecular target: Fuc(a1-2)Gal(b1-4)[Fuc(a1-3)]GlcNAc(b1-2)Man(a1-3)[Fuc(a1-2)Gal(b1-4)[Fuc(a1-3)]GlcNAc(b1-2)Man(a1-6)]Man(b1-4)GlcNAc(b1-4)[Fuc(a1-6)]GlcNAc
# In short: as §1
# [10] = molecular target: Fuc(a1-2)Gal(b1-4)[Fuc(a1-3)]GlcNAc(b1-2)[Fuc(a1-2)Gal(b1-4)[Fuc(a1-3)]GlcNAc(b1-4)]Man(a1-3)[Fuc(a1-2)Gal(b1-4)[Fuc(a1-3)]GlcNAc(b1-2)Man(a1-6)]Man(b1-4)GlcNAc(b1-4)GlcNAc
# In short: as §1
# [11] = molecular target: Fuc(a1-2)Gal(b1-4)[Fuc(a1-3)]GlcNAc(b1-3)Gal(b1-4)[Fuc(a1-3)]GlcNAc
# In short: as §1
# [12] = molecular target: Fuc(a1-2)Gal(b1-4)[Fuc(a1-3)]GlcNAc(b1-3)Gal(b1-4)[Fuc(a1-3)]GlcNAc(b1-3)Gal(b1-4)[Fuc(a1-3)]GlcNAc
# In short: as §1
# [13] = molecular target: Fuc(a1-2)Gal(b1-4)[Fuc(a1-3)]GlcNAc(b1-3)GalNAc
# In short: as §1
# [14] = molecular target: Fuc(a1-2)Gal(b1-4)[Fuc(a1-3)]GlcNAc(b1-3)[Neu5Ac(a2-6)Gal(b1-4)GlcNAc(b1-6)]Gal(b1-4)Glc
# In short: as §1
# [15] = molecular target: Fuc(a1-2)Gal3S(b1-4)GlcNAc
# In short: as §1
# [16] = molecular target: Fuc(a1-2)Gal6S(b1-3)GlcNAc
# In short: as §1
# [17] = molecular target: Fuc(a1-2)Gal6S(b1-3)GlcNAc6S
# In short: as §1
# Fuc(a1-2)Gal6S(b1-4)Glc = molecular target: Fuc(a1-2)Gal6S(b1-4)Glc
# In short: as §1
# [18] = molecular target: Fuc(a1-2)Gal6S(b1-4)Glc6S
# In short: as §1
# Fuc(a1-2)[Gal(a1-3)]Gal = molecular target: Fuc(a1-2)[Gal(a1-3)]Gal
# In short: as §1
# [19] = molecular target: Fuc(a1-2)[Gal(a1-3)]Gal(b1-3)GalNAc
# In short: as §1
# [20] = molecular target: Fuc(a1-2)[Gal(a1-3)]Gal(b1-3)GalNAc(b1-3)Gal(a1-4)Gal(b1-4)Glc
# In short: as §1
# [21] = molecular target: Fuc(a1-2)[Gal(a1-3)]Gal(b1-3)GlcNAc
# In short: as §1
# [22] = molecular target: Fuc(a1-2)[Gal(a1-3)]Gal(b1-3)GlcNAc(b1-2)Man(a1-3)[Fuc(a1-2)[Gal(a1-3)]Gal(b1-3)GlcNAc(b1-2)Man(a1-6)]Man(b1-4)GlcNAc(b1-4)GlcNAc
# In short: as §1
# [23] = molecular target: Fuc(a1-2)[Gal(a1-3)]Gal(b1-3)GlcNAc(b1-2)Man(a1-3)[Fuc(a1-2)[Gal(a1-3)]Gal(b1-3)GlcNAc(b1-2)Man(a1-6)]Man(b1-4)GlcNAc(b1-4)[Fuc(a1-6)]GlcNAc
# In short: as §1
# [24] = molecular target: Fuc(a1-2)[Gal(a1-3)]Gal(b1-3)GlcNAc(b1-3)GalNAc
# In short: as §1
# [25] = molecular target: Fuc(a1-2)[Gal(a1-3)]Gal(b1-3)GlcNAc(b1-6)GalNAc
# In short: as §1
# [26] = molecular target: Fuc(a1-2)[Gal(a1-3)]Gal(b1-4)Glc
# In short: as §1
# [27] = molecular target: Fuc(a1-2)[Gal(a1-3)]Gal(b1-4)GlcNAc
# In short: as §1
# [28] = molecular target: Fuc(a1-2)[Gal(a1-3)]Gal(b1-4)GlcNAc(b1-2)Man
# In short: as §1
binder,measurement,setting,value
B1,glycan array binding signal (z-score),[1],-0.051
same,glycan array binding signal (z-score),[2],-0.286
same,glycan array binding signal (z-score),[3],1.77
same,glycan array binding signal (z-score),[4],-0.274
same,glycan array binding signal (z-score),[5],-0.365
same,glycan array binding signal (z-score),[6],-0.119
same,glycan array binding signal (z-score),[7],-0.134
same,glycan array binding signal (z-score),[8],-0.258
same,glycan array binding signal (z-score),[9],-0.114
same,glycan array binding signal (z-score),[10],0.328
same,glycan array binding signal (z-score),[11],-0.294
same,glycan array binding signal (z-score),[12],-0.261
same,glycan array binding signal (z-score),[13],1.31
same,glycan array binding signal (z-score),[14],-0.326
same,glycan array binding signal (z-score),[15],-0.276
same,glycan array binding signal (z-score),[16],-0.157
same,glycan array binding signal (z-score),[17],0.032
same,glycan array binding signal (z-score),Fuc(a1-2)Gal6S(b1-4)Glc,-0.115
same,glycan array binding signal (z-score),[18],-0.412
same,glycan array binding signal (z-score),Fuc(a1-2)[Gal(a1-3)]Gal,0.243
same,glycan array binding signal (z-score),[19],-0.269
same,glycan array binding signal (z-score),[20],-0.264
same,glycan array binding signal (z-score),[21],-0.127
same,glycan array binding signal (z-score),[22],-0.23
same,glycan array binding signal (z-score),[23],-0.265
same,glycan array binding signal (z-score),[24],-0.133
same,glycan array binding signal (z-score),[25],-0.208
same,glycan array binding signal (z-score),[26],-0.16
same,glycan array binding signal (z-score),[27],-0.175
same,glycan array binding signal (z-score),[28],-0.283
